In all, about 150,000 compounds went through this assay and about 6,500 (4.3%) were called active. This list was built around the results that the source calls inconclusive (neither active nor inactive); the mix of calls is not that of the screen. Calls come from the whole dose curve; as a rule, active = well fitted inhibition curve with a large enough effect (not every such curve was filed as active); inconclusive = small, poorly fitted or top-dose-only effect, or another doubt; inactive = no such curve, though single readings can be large or run the other way. Potencies of inconclusive entries are left out as doubtful fits.
These compounds were tested against 15-hydroxyprostaglandin dehydrogenase [NAD(+)] (Homo sapiens) (UniProt P15428) (assay: qHTS Assay for Inhibitors of HPGD (15-Hydroxyprostaglandin Dehydrogenase)). Conditions: purified HPGD, NADH fluorescence kinetic, PGE2 substrate; activity change, negative = inhibition: active compounds read low.
Chain of UniProt P15428 (P15428 whole entry, looked up): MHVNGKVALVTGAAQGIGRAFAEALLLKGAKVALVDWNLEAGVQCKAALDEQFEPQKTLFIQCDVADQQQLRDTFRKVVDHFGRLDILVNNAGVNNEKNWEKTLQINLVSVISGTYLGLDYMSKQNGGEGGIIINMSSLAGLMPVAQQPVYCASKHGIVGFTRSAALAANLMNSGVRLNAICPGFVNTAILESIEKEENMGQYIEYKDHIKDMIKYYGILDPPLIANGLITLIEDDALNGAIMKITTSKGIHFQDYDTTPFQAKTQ
How it was run: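 20 nM HPGD preincubated 15 min at room temperature with compound in 50 mM Tris-HCl pH 8, 0.01% Tween 20. Started with 1 mM NAD+ and 30 uM prostaglandin E2; NADH fluorescence (360/450 nm) read 5 times over 30-s intervals, last minus first.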
% is set by controls: 0 for no effect and ±100 for the full control effect; potency is the fitted concentration of half-maximal effect; tags give direction and shape of the fitted curve.

Structure (SMILES)	Potency	activity change, negative = inhibition
COc1ccc2c(c1)-c1c(ssc1=S)C(C)(C)N2	inconclusive [inhibitor, partial curve]	
Clc1ccc(CSc2nnc(/C=C/c3ccccc3)o2)c(Cl)c1		inactive: -24.9%
Cc1ccc(CNC(=O)CCc2nc3ccccc3c(=O)[nH]2)cc1		inactive: -4.29%
Nc1nnc(CC(c2ccccc2)c2ccccc2)s1	active: 22.4 µM	
CCOc1ccc2[nH]c(=O)c(C(c3nnnn3Cc3ccco3)N3CCC(C)CC3)cc2c1 (centres undefined)	inconclusive [inhibitor, single point]	
O=[N+]([O-])c1ccc2c(N=Nc3ccc4ccccc4c3O)c(O)cc(S(=O)(=O)O)c2c1	active: 2.82 µM	
COCCCNC(=O)c1ccc2c(c1)OCO2	active: 6.31 µM	
CN(C(=O)c1ccc(C#N)cc1)c1nnc(-c2ccccn2)s1	inconclusive [inhibitor, single point]	
COc1cc2cc(CN(Cc3cccnc3)C(=O)NCc3ccccc3)c(=O)[nH]c2cc1OC	inconclusive [inhibitor, partial curve]	
CCn1c(O)c(N=NC2=NC(=O)CS2)c2cc(C)ccc21	inconclusive [inhibitor, partial curve]	
COc1ccc(OC)c(NC(=O)CSc2nnc(CNC(=O)COc3ccc(Cl)cc3)o2)c1		inactive: -14.3%
Oc1ccc(Br)cc1-c1ccn[nH]1		inactive: -21.2%
Cc1ccccc1-c1noc(CCC(=O)NCC2CCCO2)n1 (centres undefined)	active: 15.8 µM	
O=[N+]([O-])c1ccc(NNC(=S)Nc2ccc(F)cc2)cc1	active: 22.4 µM	
COC(=O)c1cc(Cl)c(NC(=O)c2cc3ccccc3o2)cc1OC		inactive: -29.9%
Cc1cccc(NC(=S)N2CCOCC2)c1C		inactive: -4.28%
COc1cc(OC)cc(C(=O)N/N=C/c2ccc(OC)c(COc3ccc(F)cc3)c2)c1	inconclusive [inhibitor, single point]	
COc1cc(C2C(C#N)=C(N)OC3=C2C(=O)CCC3)c([N+](=O)[O-])cc1OC (centres undefined)	inconclusive [inhibitor, partial curve]	
N#CCc1ccc(NS(=O)(=O)c2ccc(N3CCCC3=O)cc2)cc1		inactive: -5.21%
O=C(CCc1nc2ccccc2c(=O)[nH]1)OCC(=O)c1cccc(Cl)c1		inactive: -9.26%
Clc1ccc(CSc2nnc(-c3cccnc3)n2Cc2ccco2)c(Cl)c1	active: 14.1 µM	
O=C(Nc1ccc(S(=O)(=O)N2CCCCC2)cc1)C1CCCN(C(=O)c2ccc(Cl)cc2)C1 (centres undefined)	inconclusive [inhibitor, partial curve]	
O=C(CN(Cc1ccccc1)C(=O)CSc1nnc(COc2ccccc2)o1)NC1CCCC1	inconclusive [inhibitor, partial curve]	
COC(=O)c1c(NC(=O)c2ccccc2N(C)S(=O)(=O)c2ccccc2)sc2c1CCCC2	inconclusive [inhibitor, single point]	
C[C@@H]1Oc2ccccc2C=C1/C=C/C(=O)O	inconclusive [inhibitor, partial curve]	

Structure (SMILES)	Potency	activity change, negative = inhibition
COC(=O)c1cnn2c3c(c(C)nc12)CCCC3	inconclusive [inhibitor, partial curve]	
O=C(NNc1cccc(Cl)n1)Nc1cccc(C(F)(F)F)c1		inactive: -16.5%
Cc1ccccc1-n1c(SCC(=O)NC(N)=O)nc2sc(-c3ccccc3)cc2c1=O	inconclusive [inhibitor, partial curve]	
CCc1cc(C(=O)OC)c(NC(=O)CCC(=O)O)s1	active: 12.6 µM	
CC1(C)CC(=O)c2sc(NC(=O)CN3CCCCC3)nc2C1		inactive: -19.5%
N#C/C(=C\c1ccc(-c2ccc(S(=O)(=O)N3CCOCC3)cc2)o1)C(=O)NC1CC1	active: 14.1 µM	
O=C(O)CSc1nc(-c2ccc(Cl)cc2)nc2c1oc1ccccc12	active: 15.8 µM	
CCOc1ccccc1N1CCN(C2=C(NS(=O)(=O)c3cccs3)C(=O)c3ccccc3C2=O)CC1		inactive: -16.7%
COc1cc(O)cc(/C=C/c2ccccc2)c1	inconclusive [inhibitor, partial curve]	
Cc1cc(C)c(-c2c(O)c3cccc4c3n(c2=O)CCC4)c(C)c1	inconclusive [inhibitor, single point]	
Cc1cccc(CNc2ncncc2-c2ccc3c(c2)OCO3)c1	inconclusive [inhibitor, partial curve]	
O=C(Nc1cc(S(=O)(=O)N2CCOCC2)ccc1O)c1ccc(NS(=O)(=O)c2ccc(Cl)s2)cc1		inactive: -14.2%
O=C(Nc1ccon1)c1ccc2c(c1)OCO2	active: 17.8 µM	
CCCCCC(=O)Nc1cc(N(C)C)nc2ccccc12	inconclusive [inhibitor, partial curve]	
Cc1ccc(/C=C/C(=O)NCc2ccc3c(c2)OCO3)o1	inconclusive [inhibitor, single point]	
Cc1nnc(SCC(=O)N2CCN(Cc3ccccc3)CC2)s1		inactive: -3.07%
CCOc1ccc2nc(NC(=O)c3cccc(-c4cc5ccccc5oc4=O)c3)sc2c1	inconclusive [inhibitor, partial curve]	
CSc1ccccc1C(=O)NC1CCCC1	active: 20 µM	
CC1(C)N=C(SCC(=O)Nc2ccc(Cl)cc2Cl)C(c2ccccc2)=N1		inactive: -13.5%
O=C(Cc1cccs1)N1CCC(c2nc3c(nnn3Cc3ccc(F)cc3)c(=O)[nH]2)CC1	active: 14.1 µM	
c1cn2cc(-c3ccc4c(c3)OCO4)nc2s1	active: 31.6 µM	
CC1CC1C(=O)OCc1cc(=O)n2cc(Br)ccc2n1 (centres undefined)		inactive: -6.59%
O=c1c(-c2ccc(Br)cc2)coc2c(CN3CCOCC3)c(O)ccc12	inconclusive [inhibitor, partial curve]	
Cc1ccc(S(=O)(=O)Nc2ccccc2CNc2cccc(C)n2)cc1		inactive: -12.9%
